In the supplement of paper PMC3334620:
Over roughly 33,000 sequences, “E-score (-0.5 to 0.5)” has its median near -0.035; the highest 2% begin near 0.34. The list shows a part of the results.

What follows are sequences tested against T1, Mot3 (UniProt P54785) (assay: PBM E-score (8-mer binding enrichment) (E-score (-0.5 to 0.5)); higher = stronger / more preferred TF binding; most listed sequences are background and not binding sites). Conditions: protein concentration: 200 nM; construct: GST-full length.
T1 sequence: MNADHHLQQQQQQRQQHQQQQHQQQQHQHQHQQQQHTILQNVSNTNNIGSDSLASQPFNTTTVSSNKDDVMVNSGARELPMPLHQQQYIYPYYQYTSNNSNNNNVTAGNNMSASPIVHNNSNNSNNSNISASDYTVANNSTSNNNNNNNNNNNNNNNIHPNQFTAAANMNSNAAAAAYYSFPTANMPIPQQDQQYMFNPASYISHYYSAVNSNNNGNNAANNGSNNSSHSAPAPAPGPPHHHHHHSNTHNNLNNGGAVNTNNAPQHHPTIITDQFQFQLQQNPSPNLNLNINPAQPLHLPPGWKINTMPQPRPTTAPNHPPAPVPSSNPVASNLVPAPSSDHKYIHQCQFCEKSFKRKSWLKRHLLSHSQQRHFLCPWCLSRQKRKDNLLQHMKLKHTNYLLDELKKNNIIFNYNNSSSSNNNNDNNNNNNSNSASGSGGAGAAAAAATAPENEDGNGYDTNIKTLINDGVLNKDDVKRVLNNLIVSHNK
Procedure, shortened: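 Yeast transcription factors carrying a GST tag, as full-length proteins or DNA-binding domains, were produced by PURExpress in vitro transcription/translation. About 100-200 nM protein was applied to universal all-10-mer Agilent arrays, double-stranded by primer extension on fresh or once-stripped slides. Bound protein was detected with fluorescent anti-GST, and scans were normalised with masliner. The Universal PBM Analysis Suite gave each ungapped eight-base word, pooled with its reverse complement, an E-score, a modified Wilcoxon-Mann-Whitney statistic.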

Sequence | PBM E-score
AAGATCTA | -0.0945
AACGTCCA | 0.0806
TCCGCAAA | -0.144
GCGGCTGA | -0.28
CGGATTAG | -0.104
CGTGAATA | 0.0673
GACCTTAC | -0.0449
GGAGTCCC | -0.249
CCTATACG | 0.0755
TAGTTCAA | -0.122
AGTGGTCG | -0.106
TAGTGAGA | -0.0858
AACTCACG | 0.101
CCAACGGC | -0.262
GTTATAGA | 0.203
AAAAAATG | 0.276
CGGCGGTA | -0.141
GGGAAGGA | 0.0106
ATGGAGCG | -0.165
ATCTAACA | 0.0652
CCCTTCCC | -0.116
GCCTCCTA | -0.00587
TCAATTCA | -0.115
GGGCGAGA | -0.198
AGCTATAT | 0.0605

Sequence | PBM E-score
CGCTGAAA | 0.0848
AGTCTCCC | -0.221
AGCGGACG | -0.165
CTCTTCGA | -0.144
CCGCGAGG | -0.238
ATCCGAAA | -0.134
ACCAAGAC | -0.0753
GTACGGTA | 0.0144
GGCAGGAA | 0.419
CATATGAG | -0.212
GTAGGGAC | -0.157
ACTGGTGC | -0.0536
GAGGCGGC | -0.207
TAGCCTAA | 0.00109
AGATGTCC | -0.271
AAAACCGG | -0.13
AGTGCCAC | -0.35
AAGCTGGG | -0.201
GCGTGCAA | -0.0164
CAGGAAGC | -0.0266
ACTAAATG | -0.0144
GAGTAAAA | 0.13
AAAAAACC | -0.0111
AGAGCCAA | 0.0137
TGGGACCA | -0.201

Sequence | PBM E-score
GCTGGACA | -0.248
AAGTGCCG | -0.262
CTCCATAA | 0.00206
CTAAGACC | -0.0828
CTGGCAAA | -0.0815
ATCTTCGA | 0.00733
AATACCCG | 0.101
ACTCCAAT | -0.0757
GCGTGAAA | 0.153
CTGAACTC | -0.12
TCCTCCAA | -0.0985
ATGACTGC | -0.153
GAGTGTGC | 0.0775
ACTATGTA | 0.36
ATGACTTG | -0.0353
GTGCGATA | -0.123
GCCCACGA | -0.208
AGCGAGTC | -0.235
AGTGCAAG | 0.0142
AACCGAGC | -0.139
ATGGCCTC | -0.229
CCTAGGGA | -0.256
CCCCAAGC | -0.18
CGGCCGAG | -0.165
TCAATAGA | -0.118

Sequence | PBM E-score
ACAACGCC | 0.105
GAGAATGC | -0.0679
TACATAAA | 0.28
CACAATTC | 0.0732
GAGCGCCC | -0.292
GCTATAAA | 0.0828
CTTAGCAC | -0.0517
GTTGTTAA | 0.275
CGTAAGAG | 0.158
GCTAAGAA | -0.122
ACCATACA | -0.0574
CCTGAATC | 0.142
TATGGAGA | -0.267
ACGTACCG | 0.00315
CGTTCGTA | 0.144
GAATGATC | -0.263
AGGTACCT | 0.434
GGTTTCCA | -0.188
CGTTAGCA | 0.0689
AGCATCGG | -0.265
AGCCGGCT | -0.321
AGGATCTG | -0.111
CTTAGCCC | -0.079
AGTTAGTA | 0.137
ACTGCTAC | -0.00805

Sequence | PBM E-score
GACGAAAA | 0.131
CGGGCAAA | 0.0704
AGGCTTTA | 0.0362
ATCCTTAC | 0.115
ATAGATGA | 0.0867
CAGAGCCA | -0.192
ACACGGAA | 0.26
CTCGACAA | -0.0271
GTTTTGGA | 0.0391
AACCTACG | 0.244
CAATATGG | -0.152
ATCGATAA | -0.12
ACCCGTGG | -0.276
CAGCTTGC | 0.0301
GCGAACGC | 0.019
TAAGTTCA | 0.0189
CACTGTTC | -0.0593
CTAGCAGC | -0.257
GCAGCTAA | -0.0942
GAAATTAC | 0.249
CGCAGTAA | 0.0257
ATCTGCAG | -0.00462
GCATCGTA | -0.112
AGTTCGGG | -0.0145
GCAGTCTA | -0.254

Sequence | PBM E-score
AAAAGTAC | 0.117
GGTTAGTA | 0.0741
ATATACAG | 0.1
ACTAGTTC | 0.0677
ACCCCTTG | -0.111
ATGTTACA | 0.336
CCAGATTA | 0.0153
ATCCGTCA | -0.123
AAGTTTCT | -0.0129
ATTTCCTA | 0.371
TCAGCAAA | 0.0966
ACGGGCGG | -0.212
CGCGACCG | 0.0478
GAGAGCGC | -0.317
AAGCTTTC | 0.0664
CAAGCCGG | -0.0974
TCGACTCA | 0.112
ACGCCTAT | 0.0777
GATTTGAA | 0.14
CCGTCAAA | -0.0163
CGGATAGC | -0.167
TCGCCCGA | -0.0433
GAGCCAGA | -0.045
ACAGTCTG | -0.263
GAGAGCCC | -0.378

Sequence | PBM E-score
CTCAGTCA | -0.0001
AGCTGGTA | -0.0734
GGAAATTA | 0.196
GACACGCC | 0.0713
GTGGAGGA | -0.166
CTGACTGC | -0.0379
ACTAAGGA | 0.033
TACTCAGA | -0.0365
ATTAGAGC | 0.0474
ACATCGAT | 0.099
CTCGCGAA | -0.0724
GCCTGATA | 0.184
AAAGGAAG | 0.059
CTAGGCAC | 0.485
GTACCTCA | 0.113
GACCACTC | -0.237
AGCTCGCA | -0.214
AACTCGCT | -0.0209
TACGATAA | -0.032
CAAATTTC | 0.0703
AGCATCAT | -0.137
ACATACCG | 0.215
